Measurements published in PubChem BioAssay AID1963576 (National Center for Advancing Translational Sciences (NCATS), 2024).
The campaign covered roughly 46,000 compounds. About 60 (0.1%) were called active. Inconclusive results (about 3%) are left out. The call rests on the fitted dose curve; in most records, active means well fitted inhibition curve with a large enough effect; inconclusive means small, poorly fitted or top-dose-only effect; inactive means no such curve, though single readings can be large or run the other way. The list shows a part of the results.

assay: Primary qHTS assay for Inhibitors of ovarian cancer metastasis using an organotypic tumor microenvironment (TME) model.; further: nearly all actives have a fitted effect of over 65% in size; details: SKOV3ip1-GFP adhesion/invasion on 3D omental model, fluorescence; series mostly up to 45.8 µM; activity change, negative = inhibition: at the top concentration
Source text: PI: Ernst Lengyel MD., Ph.D. Department of Obstetrics and Gynecology, Section of Gynecologic Oncology University of Chicago Medicine, Chicago, Illinois. The tumor microenvironment (TME) is a key determinant of metastatic efficiency. We performed a quantitative high-throughput screen (qHTS) of diverse medicinal chemistry tractable scaffolds (44,420 compounds) and pharmacologically active small molecules (386 compounds) using a layered organotypic, robust assay representing the ovarian cancer metastatic TME. This 3D model contains primary human mesothelial cells, fibroblasts, and extracellular matrix, to which fluorescently labeled ovarian cancer cells are added. Initially, 100 compounds inhibiting ovarian cancer adhesion/invasion to the 3D model in a dose-dependent manner were identified. Of those, eight compounds were confirmed active in five high-grade serous ovarian cancer cell lines and were further validated in secondary in vitro and in vivo biological assays. […] Specifically, NCGC00117362 and PP-121 inhibited ovarian cancer adhesion, invasion, and proliferation, whereas milciclib inhibited ovarian cancer invasion and proliferation. […] To evaluate the clinical potential of NCGC00117362, structure - activity relationship studies were performed. […] The three compounds identified have promise as therapeutics for prevention and treatment of ovarian cancer metastasis.
PROTOCOL TABLE (as described by Inglese J, Shamu CE and Guy RK. 2007) SEQUENCE No. (e.g., 1, 2, 3, etc.); […] (e.g., Cells, Incubation, Reagent, etc.); VALUE; DESCRIPTION. 1; Cells; 4 uL; primary human omental fibroblast, black, clear bottom, low base, 1536-well Aurora assay plate. 2; Incubation; 48 hr; 37C. 3; Cells; 3 uL; 1,200 SKOV3ip1-GFP cells. 4; Compounds; 23nL; acoustic dispenser. 5; Incubation; 2 hr; room temperature. 6; Incubation; 16 hr; 37C. 7; Wash; 5 uL; 1x PBS. 8; Fixing; 5 uL; 4% paraformaldehyde (PFA). 9; Incubation; 15 min; room temperature 10; Wash, 5 uL; 1x PBS. 11; Detection; Fluorescence, excitation filter 488 nm, emission filter 509 nm. NOTES (numbers refer to Sequence numbers above) 1. For the 1,536-well format, 40 primary human omental fibroblasts and 400 mesothelial cells were seeded with 0.02 µg fibronectin and 0.02 µg collagen type I in 4 µL of growth media (2.3 mm2; Supplementary Fig. S1A). 2. Assay plates were incubated for 48 hours at 37 C. 3. After incubation, 1,200 SKOV3ip1-GFP were seeded in 3 µL of serum-free media (growth media minus FBS) on top of primary human omental cells. 4. Compounds or controls were added to each well immediately after the addition of the cancer cells. Compounds were screened in four doses (0.36-46 µmol/L), and the plates contained the positive control (Tomatine) in eight doses (0.035-75 µmol/L) and DMSO (equal volume controls) 5 - 6. The plates were incubated at room temperature for 2 hours and then at 37 degrees C for 16 hours. 7 - 10. Following incubation, the media were aspirated and each well washed with PBS (5 µL) and then fixed with 4% paraformaldehyde (PFA; 5 µL). After 15 minutes, the PFA solution was aspirated, PBS (5 µL) was added. 11. The number of GFP-labeled cells analyzed using a fluorescent cytometer TTP LabTech Acumen eX3 using 488 nm excitation filter and 509 nm emission filter. Data was normalized to the DMSO treated for negative and Tomatine treated wells for positive control. REFERENCES: Inglese J, Shamu CE and Guy RK, Reporting data from high throughput screening of small molecule libraries, Nature Chemical Biology, 2007, 3(8): 438-441. doi.org/10.1038/nchembio0807-438. Yasgar A, Shinn P, Jadhav A, Auld DS, Michael S, Zheng W, Austin CP, Inglese J and Simeonov A, Compound Management for Quantitative High-Throughput Screening. J. Assoc. Lab. Auto., 2008, 13: 79-89. doi: 10.1016/j.jala.2007.12.004.

outcome, inactive:
COc1cc(NC(=O)c2oc3c(c2C)-c2nn(Cc4cccc(Cl)c4)cc2CC3)cc(OC)c1
Cc1oc(-c2ccccc2F)nc1CS(=O)(=O)CC(=O)NCCc1ccc(Cl)cc1

Activity change, negative = inhibition, inactive:
O=C(Nc1ccc(OC(F)(F)F)cc1)C1CCN(S(=O)(=O)c2cccs2)CC1 -32.4%
CCn1cc(S(=O)(=O)c2ccccc2)c(=O)c2cc(F)c(N3CCN(c4ccccc4)CC3)cc21 4.34%
CCN(CC)C(=O)c1sc2c(c1C)c(=O)n(-c1ccc(OC)cc1OC)c(=O)n2CC(=O)c1ccc(Cl)cc1 -5.92%
Cn1c2ccccc2c2cnn(CC(=O)Nc3ccccc3C(F)(F)F)c(=O)c21 2.11%
Cc1ccccc1-c1noc(-c2ccc(N3CCOCC3)c([N+](=O)[O-])c2)n1 -4.14%
Cc1ccc(-n2c(=O)c3c(cnn3C)n(Cc3ccccc3F)c2=O)cc1 1.88%
O=C(NCCc1nc2ccccc2n1Cc1ccc(Cl)cc1Cl)c1ccco1 -1.79%
CCn1ccc2c(OCC(=O)NCc3ccc(F)cc3)cccc2c1=O 11.1%
Cc1ccc(-c2noc(-c3ccccc3NC(=O)C3CC(=O)N(c4ccccc4C)C3)n2)cc1 (stereo not given) -2.42%
Cc1nn(-c2ccc(N3CCCC3)nn2)c(C)c1CCC(=O)Nc1ccc(F)c(Cl)c1 -1.07%
CCc1nn(CC(=O)Nc2ccc(N(CC)CC)cc2C)c(=O)c2cc3sccc3n12 5.81%
CC(C)Sc1ncc(Cl)c(C(=O)N(Cc2ccc(N(C)C)cc2)C2CCS(=O)(=O)C2)n1 (stereo not given) -1.25%
N#Cc1ccc(C(=O)Nc2ccc3c(c2)N(C2CCCC2)C(=O)c2ccccc2S3)cc1 12.6%
Oc1cc(-c2nc(-c3ccccc3)[nH]c2-c2ccncc2)ccc1Cl -11.5%
CCOc1ccc(C2C(C(=O)Nc3ccccc3)=C(C)Nc3nc(SCc4cc(C)ccc4C)nn32)cc1 (stereo not given) 9.54%
Cc1cc(C)c2nc(N(Cc3cccnc3)C(=O)c3cccs3)sc2c1 -4.96%
CC(C)Cn1c(=O)c2ccccc2n2c(CCC(=O)NC(C)c3ccccc3)nnc12 (stereo not given) -9.9%
COc1ccc(CC(=O)NCCc2csc3nc(-c4ccccc4F)nn23)cc1 1.97%
Cc1ccc(NC(=O)CN(C)S(=O)(=O)c2ccc3[nH]c4c(c3c2)CCCC4)c(Cl)c1 -1.18%
COc1ccc(N2CCN(c3oc(-c4ccc(COc5cccc(C)c5)o4)nc3C#N)CC2)cc1 6.41%
COc1cc(-c2nc(Cn3nnc(C(=O)Nc4ccc(C)cc4C)c3C)c(C)o2)cc(OC)c1OC 18%
CCCN(C(=O)CCc1nc(-c2ccc(OC)cc2)no1)c1ccccc1F 1.45%
CSc1ncc(C(=O)N2CCN(c3cc(Cl)ccc3C)CC2)c(C)n1 3.88%
